# ± gives the standard deviation of the averaged measurements. Some of the results follow.
# Tested on: PfAP2-EXP AP2 domain (GST-tagged)
# Assay: gcPBM binding intensity (ln(normalized median fluorescence intensity)); higher = stronger DNA binding
# Method in brief: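 An Agilent 4 × 180k array carrying primer-extended double-stranded 36-bp intergenic genomic probes and negative controls received GST-tagged P. falciparum DNA-binding domains expressed in E. coli, about 25 μg on average, for 1 h. The binding buffer contained 1× PBS, 1% milk, 0.2 mg/ml BSA, 0.5% salmon testes DNA and 0.03% Triton X-100. Binding intensity is the top Masliner-normalised natural-log median intensity across replicate spots of either probe orientation, read after Alexa488 anti-GST antibody staining and a 488 nm scan.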
row,Sequence,gcPBM binding intensity (ln)
1,TGTATATATAAACATGCACACGTGGTTGTATATATA [CACACA_site9078],8.54 ± 0.2
2,TAGTATTAAAATATTTGTACTTATATGTATTATATA [XGTACX_site538],8.25 ± 0.37
3,TGTAGTCTGGAGAAGAGTACACAGTATCTGGTAACA [XGTACX_site2038],8.41 ± 0.31
4,AATATTTTAAAAAAAAGTACATTATATATATATGTT [XGTACX_site8073],8.45 ± 0.29
5,AGAATTCGTTTAAAAAGTACATTCAATTTAATAATG [XGTACX_site6603],8.22 ± 0.31
6,AATAAAAAGGAACACACACACACACGGATATAAATA [CACACA_site7658],8.97 ± 0.47
7,TATTTTACATCTTCTCACATTTTATCACTTTTTAAA [CACACA_negctrl_site330],8.76 ± 0.41
8,TCTTTGTAAATTTCTTGTACGTAAATTTTTTTTAGG [XGTACX_site7062],8.8 ± 0.52
9,TCATAGTATAGACACACACACACACGCATATAAATA [CACACA_site6915],8.79 ± 0.57
10,ATAGACAGCGCACAAACACACAAACACAGACCCCCA [CACACA_site4409],9.51 ± 0.48
11,TTATTTTTGTTCATAGTGCATAGAATTTATACATAT,8.77 ± 0.2
12,TTTTTTTTATGGTACACACACGCGTATGGTTGCACG [CACACA_site1877],8.71 ± 0.43
13,TTTTTTTCTTTTCAAACACACAATTGGTATATATCA [CACACA_site7542],8.62 ± 0.39
14,TTGTAAATTTCTGGTTATATATTTTATGTATATGTT [CACACA_negctrl_site1443],8.6 ± 0.35
15,ATTTATTTATTGGCACGTACAAATTTGTGTTTTCCA [XGTACX_site6978],9.02 ± 0.42
16,ATAAAGGAAATTACAAGTACAAATAAGATAAAATAA [XGTACX_site4514],8.84 ± 0.46
17,AATTATATATTATAATGTACATATATATAACTATAC [XGTACX_site1865],8.45 ± 0.26
18,AAAGAAATGAAATATACACACATACATAAATACATA [CACACA_site6081],8.76 ± 0.39
19,TATAAAAAAAGAGGAGGGATGGTATACTTGTGGTTT [TGCATGCA_negctrl_site49],8.55 ± 0.66

row,Sequence,gcPBM binding intensity (ln)
1,ATATATTTAAACTACACACGCATATCTTAGAAATAA [CACACA_site1272],8.53 ± 0.42
2,AAAAAAAAAAAATATGTACACACATATATAATACAT [CACACA_site8473],8.5 ± 0.4
3,TATATGTTTGAATATACACACAACATATTTATATAT [CACACA_site7832],8.26 ± 0.41
4,TTTTTTGTTAAAAGAGTGCAAATTTTTAAAGATTTG [GTGCAC_site9502],8.44
5,AAAAAAAAAAAAAAATACAAGCACATTTATATAAGC [GTGCAC_negctrl_site695],8.47 ± 0.4
6,AGTAATATAATATAAGCACACGTGTATTTATTTAGG [CACACA_site7921],8.58 ± 0.27
7,TATATATCAATATTTACACACATGCGCCCACATAAA [CACACA_site7185],8.84 ± 0.41
8,AAATACATTAAAATGACATGCAGATATATATCAAAA [TGCATGCA_site477],9.04 ± 0.32
9,TGAATAAAGATATATACACACATATAGGTATATATC [CACACA_site6870],8.43 ± 0.35
10,AAAAAAAAAAGACACACACACACAAATACATACACA [CACACA_site6472],8.61 ± 0.47
11,ATCTAAATAAAGTTAACACACACATAATATATATAT [CACACA_site8055],9.59 ± 0.071
12,TGCTTATATTTTTATACACACAAGATACTTTTTGTT [CACACA_site1535],8.55 ± 0.36
13,CTATGCCCCATATAAACACACAAATAAAAAGAATAT [CACACA_site2681],8.81 ± 0.57
14,TTTTTTTCTTTTGGGAGTACCAACATTTTCACATAT [XGTACX_site1371],8.78 ± 0.41
15,TGCAATGGAGCATAAAGTACATATAATTGTATTTTT [XGTACX_site7349],8.41 ± 0.44
16,TAGAATAATCCTTACACACACACACCCACGAATAAA [CACACA_site483],8.82 ± 0.63
17,AATACAGAGGAAAATACACACGTATATATATAAATA [CACACA_site9125],8.73 ± 0.44
18,TTTTAAAAAAAAAAAAAAAAAAAAAAAAAAAAAAAA [CACACA_negctrl_site1343],7.76 ± 0.21
19,TGTTTTTTTATTTTCACACATAATCCAATTATACAT [CACACA_site6070],8.91 ± 0.41

row,Sequence,gcPBM binding intensity (ln)
1,TTTTAAAATTATTAGGTGCATATTTATTCTATATTT,8.45 ± 0.23
2,CAACACTTAGATTTTAAGTTCACTGGTTAATATATA [CACACA_negctrl_site707],8.12 ± 0.4
3,AATAAAAATAATATAGTGCATAATATAAGGAAAAAA,9.07 ± 0.071
4,TTAAAAAAATATAGAGCATGCTAAAAATAAAAAAAT [TGCATGCA_site794],9.12 ± 0.49
5,GTTATACTCATCAACACACACATACAACGTGGTGTA [CACACA_site4789],8.41 ± 0.67
6,AGGTCTATATAATAAGTGCATTTTTTTTTTTTTTTT [GTGCAC_site9664],8.565 ± 0.064
7,GCATCTCATTTGTGATGTACTATATTATCCGTTTTT [XGTACX_site7576],8.59 ± 0.37
8,TTTCTATATCTATTTAATTAACTTTTTATACTGATT [GTGCAC_negctrl_site415],8.55 ± 0.43
9,ATCAACAAAACATACACACACATATATATATATATA [CACACA_site2989],10.2 ± 0.46
10,CATATCATTGATTATAGTACACATACCATTTTTTAT [XGTACX_site6572],8.66 ± 0.38
11,CACATAAAAAAATAAACACACATATGTATTTATATA [CACACA_site5718],8.22 ± 0.38
12,ATTTATATTACAAAAAGTACACACATAAATAAATAC [XGTACX_site1827],8.97 ± 0.29
13,TATATATATTATATATGTACATATATTTTTTTTTTT [XGTACX_site127],8.69 ± 0.19
14,ATATATATATATATAACACACGTGTATATATATGTA [CACACA_site3644],10.2 ± 0.23
15,TATTAATCATATAAATGTACGTATATATATTTTTCT [XGTACX_site1421],8.43 ± 0.35
16,AAAAAAAAAAAATATATATATATATATATATATATA [CACACA_negctrl_site1606],10.3 ± 0.21
17,CAATCATAGAAAAACAGTACGTGTAGCAAACATCCT [XGTACX_site4889],8.61 ± 0.62
18,TATAATATATTATAACGTACAAATATATATATAAAA [XGTACX_site6581],8.6 ± 0.49
19,CAAATACAGAAACACACACACATATACATATATATA [CACACA_site3498],8.65 ± 0.28

# — the supplement of paper PMC11417369
